Assay results reported in PubChem BioAssay AID445 (National Center for Advancing Translational Sciences (NCATS), 2006).
Among all 110,000 compounds or so, about 40 (0.04%) were called active. The shares of active, inactive and inconclusive entries below differ from those in the screen. Calls come from the whole dose curve; as a rule, active = well fitted curve in the direction sought with a large enough effect in the signal ratio (not every such curve was filed as active); inconclusive = small, poorly fitted or top-dose-only effect, or a change in a side signal; inactive = flat fitted curve, though single readings scatter; the % refers to the signal ratio. Where the call is inconclusive, the potency comes from a doubtful curve fit.

Experiment: IkB Signaling;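 for IkBa stabilization activation: 0% = basal untreated cells and 100% = reference inhibitor full response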
Conditions: ABC-DLBCL IkBa-CBG/CBR dual luciferase ratio (green luciferase fused to IkBa over red control in OCI-Ly3 lymphoma cells), 4 h; IkBa stabilization activation: at 57.1 µM (top of the series), scaled: untreated 0%, proteasome inhibitor 100% unless noted
Procedure, shortened: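 Luminescence ratio of IκBα-fused green versus native red beetle luciferase in OCI-Ly3 cells, 4 h post-doxycycline with compound; red signal alone, scaled from basal (0%) to zero light (-100%), flagged nonspecific or cytotoxic effects.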
Potency is the fitted concentration of half-maximal effect.

Q: For `CCN(CC)S(=O)(=O)c1ccc2nc(NC(=O)c3ccccc3OC)sc2c1`, which IkBa stabilization activation is on record?
A: The IkBa stabilization activation was inconclusive: 0.948% [signal inhibitor].

Q: For `Cc1nnc(N2CCC(C(=O)NCc3ccc(F)cc3)CC2)c2nn(-c3ccc(Cl)cc3)c(C)c12`, which Potency is on record?
A: Its Potency is inconclusive: 31.6 µM [signal activator].

Q: With `Cc1ccc2c(c1)cc(C(=O)NCc1ccc(F)cc1)n2C` as the molecule, how does the “IkBa stabilization activation” value read?
A: Its value is inactive: -1.67%.

Q: For `Cc1ccc2[nH]c(=O)c(-c3nc4c(C)cccn4c3NCc3ccco3)cc2c1`, which IkBa stabilization activation is on record?
A: Its IkBa stabilization activation is inconclusive: 1.91% [signal inhibitor].

Q: For `CCCCOc1ccc(C(=O)NCCS(=O)(=O)N2CCN(c3ccccc3OC)CC2)cc1`, which IkBa stabilization activation is on record?
A: Its IkBa stabilization activation is inconclusive: 10.7% [signal inhibitor].

Q: With `CN(C)c1ccc(C(CNC(=O)c2ccccc2Cl)N2CCc3ccccc32)cc1` (stereo not given) as the molecule, how does the Potency read?
A: Its Potency is inconclusive: 15.8 µM [signal inhibitor].

Q: With `Cc1ccc2oc(-c3cc(NC(=O)Cc4ccccc4)ccc3Cl)nc2c1` as the molecule, how does the IkBa stabilization activation read?
A: Its IkBa stabilization activation is inconclusive: 8.14% [signal inhibitor].

Q: Which IkBa stabilization activation does the source give for `CCNc1ncc2nc(-c3ccc(OC)cc3)c(=O)n(Cc3cccs3)c2n1` here?
A: Its IkBa stabilization activation is inactive: -0.254% [at 11.4 µM, scaled: untreated 0%, proteasome inhibitor 100%].

Q: For `Cc1ccc(Cn2c(C(=O)O)c(CNCCc3cccs3)c3ccc(C)cc32)cc1`, which “IkBa stabilization activation” value is on record?
A: Its value is inactive: 0.453%.

Q: For `O=C(COc1ccc(Cl)cc1)Nc1ccc(O)c(-c2nc3ccccc3s2)c1`, which IkBa stabilization activation is on record?
A: The IkBa stabilization activation was inconclusive: 2.5% [signal inhibitor].

Q: With `CC(=O)Nc1ccccc1OCC(=O)c1cc(C)n(Cc2cccs2)c1C` as the molecule, how does the IkBa stabilization activation read?
A: Its IkBa stabilization activation is inconclusive: 1.09% [signal inhibitor].

Q: Which IkBa stabilization activation does the source give for `Cc1cc2ccccc2n1CCNC(=O)c1ccccc1F` here?
A: The IkBa stabilization activation was inconclusive: 5.24% [signal inhibitor].

Q: With `O=c1c2sc3ccccc3c2n(Cc2ccc(F)cc2)c(=O)n1Cc1ccco1` as the molecule, how does the “IkBa stabilization activation” value read?
A: The value was inactive: 1.07%.

Q: For `c1ccc2sc(SN3CCOCC3)nc2c1`, which “IkBa stabilization activation” value is on record?
A: The value was inactive: -3.46%.

Q: For `Cc1cc(-n2c(C)cc(C(=O)CSc3nnnn3-c3ccccc3)c2C)no1`, which IkBa stabilization activation is on record?
A: The IkBa stabilization activation was inconclusive: 2.51% [signal inhibitor].

Q: With `O=C(NCC(c1ccc2c(c1)OCO2)N1CCN(c2ccccc2)CC1)C(=O)Nc1ccccc1` (stereo not given) as the molecule, how does the IkBa stabilization activation read?
A: The IkBa stabilization activation was inconclusive: 8.55% [signal inhibitor].

Q: For `Cc1c(C(=O)OCC(C)(C)CN(C)C)oc2ccccc12`, which “IkBa stabilization activation” value is on record?
A: Its value is inactive: -1.84%.

Q: With `COC(=O)c1ccc(C2C3=C(Nc4nnnn42)c2ccccc2OC3)cc1` (stereo not given) as the molecule, how does the IkBa stabilization activation read?
A: The IkBa stabilization activation was inconclusive: 2.48% [signal inhibitor].

Q: Which IkBa stabilization activation does the source give for `Cc1ccc2nc(NC(=O)CCNS(=O)(=O)c3ccc(Br)s3)sc2c1` here?
A: Its IkBa stabilization activation is inconclusive: -2.94% [signal inhibitor].

Q: Which “IkBa stabilization activation” value does the source give for `COCCn1c(C)cc(C(=O)CSc2nc3ccccc3o2)c1C` here?
A: The value was inactive: 4.68%.
